Where “and” joins values, the source holds several entries; their conditions need not be identical. Identical values can stand only once. Inconclusive means that the source gave no clear call. Such entries were picked first, then a sample of the others. For some assays here: Where the call is inconclusive, the potency comes from a doubtful curve fit. Calls of active or inactive are those of the source. Unless noted, the call rests on the fitted dose curve; in most records, active means well fitted curve in the direction sought with a large enough effect; inconclusive means small, poorly fitted or top-dose-only effect, or another doubt; inactive means no such curve, though single readings can be large; an effect the other way counts as inactive or inconclusive.
What was measured:
[1] = qHTS of pediatric cancer cell lines to identify multiple opportunities for drug repurposing: Primary screen for Rh30 cells (AID 1347107); further: potency means the concentration at half of the fitted maximal effect; nearly all actives have a fitted effect of over 75% in size
How it was run: (§1)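 Viability after 48 h compound treatment at 37C, 500-1,000 cells/well, read as ATP luminescence with CellTiter-Glo. Primary screens used 11-point (MIPE, 0.78 nM-46 µM) or 8-point (NPC, 0.59 nM-46 µM) final concentrations; follow-up screens used 11-point dilutions.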

[2] = Quantitative High-Throughput drug screen in 47 multiple myeloma cell lines against the NCATS MIPE library collection: MOLP8_DSMZ cell viability assay (AID 1918977); further: nearly all actives have a fitted effect of over 45% in size; further: potency means the concentration at half of the fitted maximal effect
How it was run: (§2)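 Viability after 48 h drug exposure was measured as ATP-dependent luminescence. Cells, 500 per well, sat at 37 °C under 5% CO2; DMSO wells set 100%, media-only wells 0%.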

[3] = Quantitative High-Throughput drug screen in 47 multiple myeloma cell lines against the NCATS MIPE library collection: LP1_DSMZ cell viability assay (AID 1918982); further: nearly all actives have a fitted effect of over 35% in size; further: potency means the concentration at half of the fitted maximal effect
How it was run: as §2

[4] = Quantitative High-Throughput drug screen in 47 multiple myeloma cell lines against the NCATS MIPE library collection: SKMM1_PLB cell viability assay (AID 1919863); conditions: SKMM1 myeloma viability, CellTiter-Glo ATP, 48 h; viability: stronger effect = lower value; further: potency means the concentration at half of the fitted maximal effect; nearly all actives have a fitted effect of over 35% in size
How it was run: as §2

[5] = Quantitative High-Throughput drug screen in 47 multiple myeloma cell lines against the NCATS MIPE library collection: U266_ATCC cell viability assay (AID 1919864); further: nearly all actives have a fitted effect of over 35% in size; further: potency means the concentration at half of the fitted maximal effect
How it was run: as §2

[6] = Drug repurposing screens with cells derived from glioblastoma tumor samples (AID 1345199); conditions: GBM patient neurospheres viability, ATP luminescence, 48 h; Potency: tumour line A unless noted; activity, negative = cell killing: at 46 µM (top of the series), tumour line A unless noted; further: nearly all actives have a fitted effect of over 40% in size; further: potency means the concentration at half of the fitted maximal effect; on activity, negative = cell killing: on the % scale 0 is the no-effect control and ±100 the full control effect
How it was run: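 Four patient lines of CD133+ GBM neurospheres were screened at several concentrations; hits were retested in those lines plus three slower-growing GBM lines, using 48-hour treatment and ATP-based viability.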

[7] = tested on: Zika virus NS2B-NS3 protease; test: Primary screen GU AMC qHTS for Zika virus inhibitors (AID 1347154); further: potency means the concentration at half of the fitted maximal effect; nearly all actives have a fitted effect of over 70% in size
How it was run: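 Unlinked Zika NS2B hydrophilic domain–NS3 protease complex at 25 nM in 10 mM Tris-HCl pH 8.0, 0.01% Tween 20, with an AMC peptide substrate. Fluorescence change (340/450 nm) over 15 min at room temperature, normalized to controls, fitted to 4-parameter Hill.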

[8] = Quantitative High-Throughput drug screen in 47 multiple myeloma cell lines against the NCATS MIPE library collection: ARP1_JJKsccF8 cell viability assay (AID 1918928; further: potency means the concentration at half of the fitted maximal effect; nearly all actives have a fitted effect of over 40% in size)
How it was run: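 ATP readout (CellTiter-Glo), 48 h drug incubation, 37 °C/5% CO2, 500 cells per well; normalisation to DMSO (100%) and media-only (0%) controls.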

[9] = Quantitative High-Throughput drug screen in 47 multiple myeloma cell lines against the NCATS MIPE library collection: INA6_PLB cell viability assay (AID 1918965; further: nearly all actives have a fitted effect of over 55% in size; further: potency means the concentration at half of the fitted maximal effect); conditions: INA6 myeloma viability, CellTiter-Glo ATP luminescence, 48 h; viability (% of control): at 45.8 µM (top of the series)
How it was run: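 qHTS of the MIPE 4.0 collection: 500 myeloma cells/well, 48 h drug exposure at 37C in 5% CO2, then CellTiter-Glo for 5 min at room temperature before luminescence reading.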

[10] = Quantitative High-Throughput drug screen in 47 multiple myeloma cell lines against the NCATS MIPE library collection: KMS27_JCRB cell viability assay (AID 1918970); conditions: KMS27 myeloma cells, CellTiter-Glo ATP viability, 48 h; viability (% of DMSO): at 45.8 µM (top of the series); further: nearly all actives have a fitted effect of over 30% in size; further: potency means the concentration at half of the fitted maximal effect
How it was run: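 Myeloma cells (500 per well) were exposed to MIPE 4.0 compounds for 48 h at 37 °C, 5% CO2; viability was read as ATP luminescence with CellTiter-Glo, normalized to DMSO-only (100%) and media-only (0%) wells.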

[11] = Quantitative High-Throughput drug screen in 47 multiple myeloma cell lines against the NCATS MIPE library collection: KMS26_JCRB cell viability assay (AID 1918975); further: nearly all actives have a fitted effect of over 45% in size; further: potency means the concentration at half of the fitted maximal effect
How it was run: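 Steps: seed 500 cells per well; pin-transfer MIPE 4.0 library; incubate 48 h at 37C, 5% CO2, humidified; add CellTiter-Glo, 5 min room temperature; read luminescence.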

[12] = Quantitative High-Throughput drug screen in 47 multiple myeloma cell lines against the NCATS MIPE library collection: OCIMY5_PLB cell viability assay (AID 1918988); further: potency means the concentration at half of the fitted maximal effect; nearly all actives have a fitted effect of over 65% in size
How it was run: as §2

UISO = test: qHTS assay to identify novel small-molecules to repurpose for Merkel cell carcinoma treatment (AID 1296009); conditions: MCC and control cell lines, CellTiter-Glo viability, 72 h; activity change, negative = cytotoxicity: at 46 µM (top of the series); further: potency means the concentration at half of the fitted maximal effect; nearly all actives have a fitted effect of over 60% in size
How it was run: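 Cells were incubated with compound for 72 hr at 37 degree celsius before CellTiter-Glo addition. Luminescence was normalized with no-cell wells as full cytotoxicity and DMSO as baseline.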

[13] = Quantitative High-Throughput drug screen in 47 multiple myeloma cell lines against the NCATS MIPE library collection: OCIMY1_PLB cell viability assay (AID 1918979); further: potency means the concentration at half of the fitted maximal effect; nearly all actives have a fitted effect of over 35% in size
How it was run: as §2

[14] = qHTS of pediatric cancer cell lines to identify multiple opportunities for drug repurposing: Confirmatory screen for MG 63 (6-TG R) cells (AID 1347119); further: nearly all actives have a fitted effect of over 55% in size; further: potency means the concentration at half of the fitted maximal effect;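 on activity change, negative = cytotoxicity: plate controls were DMSO neutral control for no effect and bortezomib for full effect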
How it was run: as §1

CP335 = test: qHTS profiling for inhibitors of Plasmodium falciparum proliferation (AID 504749); further: nearly all actives have a fitted effect of over 60% in size; further: potency means the concentration at half of the fitted maximal effect; conditions: P. falciparum in erythrocytes, SYBR Green DNA, 72 h; series mostly up to 28.7 µM
How it was run: (§3)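 Readout was DNA-dye fluorescence from lysed cultures, ex 485/em 535 nm. Parasitized red cells had grown 72 h with compound; data scaled between 0.29 uM artemisinin and DMSO wells and corrected using vehicle-only plates.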

[15] = NFAT Signaling Pathway (AID 444; active means well fitted curve in either direction with a large enough effect, not every such curve was filed as active; inconclusive means small, poorly fitted or top-dose-only effect, or another doubt;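 further: carbachol stimulus at about its EC50 of 1 µM final; on the % scale 0 is the no-effect control and ±100 the full control effect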); conditions: Jurkat NFAT-bla M1, carbachol, beta-lactamase ratio, 5 h
How it was run: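 Jurkat cells with NFAT-driven β-lactamase reporter and co-expressed M1 receptor, stimulated with carbachol (final 1 uM, ~EC50), compound titration, 5 h at 37 °C. CCF4 loaded 1 h at RT; 460/530 nm ratio gave %activity and AC50.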

[16] = A High-Content qHTS Against Drug Library for the Identification of Small Molecules that Inhibit DYT1 Early Onset Primary Dystonia-Associated Cell Pathology (AID 1645839; calls by dose curve; further: potency means the concentration at half of the fitted maximal effect)
How it was run: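 Flp-In T-REx 293 cells with tetracycline-inducible EGFP-delE hTOR1A (WT EGFP-hTOR1A as reference), 800 cells/well; compound added with tetracycline, 48 h at 37 C. Fixed, permeabilized cells imaged; %pathology (punctate TorsinA) primary, cell count counterscreen.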

CP266 = test: qHTS profiling for inhibitors of Plasmodium falciparum proliferation (AID 504749); further: nearly all actives have a fitted effect of over 60% in size; further: potency means the concentration at half of the fitted maximal effect; conditions: P. falciparum in erythrocytes, SYBR Green DNA, 72 h; series mostly up to 28.7 µM
How it was run: as §3

DIV14 = test: as above; conditions: P. falciparum in erythrocytes, SYBR Green DNA, 72 h; series mostly up to 28.7 µM
How it was run: as §3
Tags describe the fitted curve by direction and shape.

With `CCCNC(=O)[C@H]1O[C@H]1C(=O)N[C@H](C(=O)N1CCC[C@@H]1C(=O)OC)C(C)CC` (stereo not given in full) the Potency [1] was active: 18.7 µM, the Potency [2] was active: 2.64 µM and the Potency [3] was active: 14.8 µM. For the same compound, the Potency [4] was active: 20.9 µM and the Potency [5] was active: 10.5 µM.
With `OC[C@H]1O[C@@H](Oc2ccc(O)cc2)[C@H](O)[C@@H](O)[C@@H]1O` the Potency [6] was inconclusive: 0.0891 µM [inhibitor, full curve, poor fit].
With `O=C(O)C1(Cc2cccc(Nc3nccs3)n2)CCC(Oc2cccc(Cl)c2F)CC1` (stereo not given) the Potency [7] was inconclusive: 24.1 µM [inhibitor, partial curve], the Potency [8] was active: 0.59 µM and the Potency [9] was active: 0.235 µM. For the same compound, the Potency [10] was inconclusive: 0.0012 µM [cytotoxic, full curve, poor fit], the Potency [11] was inconclusive: 1.18 µM [cytotoxic, partial curve, poor fit] and the Potency [2] was inconclusive: 1.66 µM [cytotoxic, partial curve, poor fit]. The Potency [3] was inconclusive: 0.418 µM [cytotoxic, full curve, poor fit], the Potency [12] was active: 0.662 µM and the Potency [4] was inconclusive: 0.332 µM [cytotoxic, full curve, poor fit]. The Potency [5] was “inactive” and the Potency (UISO) was inconclusive: 7.43 µM [inhibitor, full curve].
For `COc1cc(OC)cc(-c2ccc3ncc4ccc(=O)n(-c5ccc(N6CCNCC6)c(C(F)(F)F)c5)c4c3c2)c1`, the Potency [1] was active: 16.6 µM, the Potency [11] was active: 5.9 µM and the Potency [2] was active: 4.18 µM. The Potency [13] was active: 14.8 µM and the Potency [3] was active: 5.9 µM.
In the case of `CO[C@@H]1[C@@H](O[C@@H]2O[C@H](C)[C@@H](O[C@H]3C[C@@](C)(O)[C@@H](OC(=O)CC(C)C)[C@H](C)O3)[C@H](N(C)C)[C@H]2O)[C@@H](CC=O)C[C@@H](C)[C@@H](O)/C=C/C=C/C[C@@H](C)OC(=O)C[C@H]1O`, the Potency [6] is reported as inconclusive: 14.1 µM [inhibitor, partial curve].
With `Cc1ccc([N+](=O)[O-])cc1S(=O)(=O)N(C)N=Cc1cnc2ccc(Br)cn12` the Potency [14] was inconclusive: 18.5 µM [cytotoxic, partial curve, poor fit], the viability (% of control) [9] was inconclusive: 2.97% [cytotoxic] and the viability (% of DMSO) [10] was inconclusive: 3.78% [cytotoxic]. For the same compound, the Potency [13] was active: 0.0526 µM, the Potency [4] was active: 0.0526 µM and the Potency [5] was active: 0.0209 µM.
For `CC(=O)Oc1ccc(C)cc1`, the Potency (CP335) was “inactive” and the Potency [6] was “inactive”.
With `NC(N)=NCCN1CCCCCCC1` the activity change, negative = inhibition ([15]; at 17.2 µM (top of the series)) was inactive: -13.3% and the Potency (CP335) was “inactive”.
In the case of `O=C(Nc1ncc(-c2cc(C(F)F)nn2-c2c(Cl)cccc2Cl)s1)C1CC1`, the Potency [14] is reported as active: 0.329 µM, the Potency [7] is reported as inconclusive: 21.5 µM [inhibitor, partial curve] and the Potency [8] is reported as active: 0.418 µM. The Potency [13] was active: 0.743 µM and the Potency [5] was active: 2.96 µM.
With `COC(=O)[C@@H]1[C@H]2C[C@@H]3c4[nH]c5ccccc5c4CCN3C[C@@H]2CC[C@@H]1O` the Potency [14] was “inactive”, the Potency [11] was “inactive” and the Potency [2] was “inactive”. The Potency [13] was inconclusive: 0.0093 µM [rising, full curve, poor fit], the Potency [3] was “inactive” and the Potency [12] was inconclusive: 0.118 µM [rising, full curve, poor fit]. The Potency [4] was inconclusive: 0.001 µM and the Potency [5] was inconclusive: 0.0019 µM [rising, full curve, poor fit].
For `COc1cc(C(=O)N2CCOCC2)cc(OC)c1OC`, the Potency [16] was “inactive” and the Potency [6] was inconclusive: 35.5 µM [inhibitor, partial curve].
For `Clc1ccc(C(c2ccc(Cl)cc2)n2cc[n+](CC(OCc3ccc(Cl)cc3Cl)c3ccc(Cl)cc3Cl)c2)cc1` (stereo not given), the Potency [1] was active: 18.7 µM, the Potency [7] was inconclusive: 37.7 µM [inhibitor, single point] and inconclusive: 34.1 µM [inhibitor, single point] and the Potency [8] was active: 11.8 µM. The Potency [9] was active: 8.33 µM, the Potency [11] was active: 16.6 µM and the Potency [13] was active: 18.7 µM. The Potency [3] was active: 18.7 µM and the Potency [12] was active: 14.8 µM.
For `CC1CC(OC(=O)c2ccccc2O)CC(C)(C)C1` (stereo not given), the Potency [6] was “inactive”.
In the case of `C[C@@H]1O[C@@H](OC[C@H]2O[C@@H](Oc3c(-c4ccc(O)c(O)c4)oc4cc(O)cc(O)c4c3=O)[C@H](O)[C@@H](O)[C@@H]2O)[C@H](O)[C@H](O)[C@H]1O`, the Potency [7] is reported as inconclusive: 3.16 µM [inhibitor, partial curve] and the Potency (CP266) is reported as inconclusive: 1.51 µM [inhibitor, single point].
With `CCc1oc2ccccc2c1C(=O)c1cc(Br)c(O)c(Br)c1` the activity change, negative = inhibition ([15]; at 7.69 µM (top of the series)) was inconclusive: -111% [inhibitor], the activity change, negative = inhibition ([15]; at 17.2 µM (top of the series)) was inconclusive: -108% [inhibitor] and inconclusive: -112% [inhibitor] and the Potency [7] was inconclusive: 10 µM [inhibitor, full curve] and active: 10.6 µM. The Potency [16] was inconclusive: 22.4 µM [inhibitor, single point], the Potency (DIV14) was “inactive” and the Potency (UISO) was inconclusive: 53.1 µM [inhibitor, partial curve, poor fit].
